Measurements published in PubChem BioAssay (NCI).
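Cultured in 96-well plates, cells were exposed to test compound for 48 hours across five concentrations. GI50 = concentration required for 50% inhibition of growth. The concentration for full growth arrest is given as TGI.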

Each compound was assayed on NCI-H322M lung (assay: NCI tumour cell line growth inhibition, 48 h).

Row | SMILES | GI50 | TGI
1 | COc1ccc(/C=N/NC(=O)c2[nH]c3ccc(Br)cc3c2-c2ccccc2)o1 | 541 nM | 43200 nM
2 | C#CCOc1cccc(-c2nc(N)nc(Nc3ccccc3SSc3ccccc3Nc3nc(N)nc(-c4cccc(OCC#C)c4)n3)n2)c1 | 18600 nM | > 33300 nM
3 | COC(=O)[C@H]1[C@@H](O)[C@@]2(O)c3c(OC)cc(OC)cc3O[C@@]2(c2ccc(OC)cc2)[C@@H]1c1ccccc1 | 18.6 nM | 455 nM
4 | CCOC(=O)c1sc(NCC(=O)Nc2cccc([N+](=O)[O-])c2)c(C(=O)OCC)c1C | 1910 nM | 5340 nM
